Reference: ChEMBL document CHEMBL1201862, “PubChem BioAssay data set” (2004)
Active and inactive are the calls of the source. Rule as the data show it: active = GI50 up to about 1.1 µM and inactive = higher.

How the values were obtained:
Test in all cases: cells
Type in all cases: functional
P388/ADR = conditions: Mus musculus
P388 = conditions: Mus musculus
SN12K1 = conditions: Homo sapiens

Measured: GI50

COc1cc2c(c(OC)c1OC)-c1ccc(OC)c(=O)cc1[C@@H](N)CC2 [CITOSTAL]
active: P388/ADR 167 nM | P388 = 64 nM | SN12K1 = 29 nM
